This passage reports survival results from PubChem BioAssay AID463173 (ICCB-Longwood Screening Facility, Harvard Medical School, 2010).

Screen size: about 52,000 compounds; about 1,700 (3.3%) were called active. Cut-off read from the data, not from the text of the source: active = survival mostly below about 52% (no sharp cut-off); inactive = mostly above about 56%. This is one part of the list.

For the experiment, the system named is Wild type. The experiment is described as follows: growth inhibition of S. aureus wild type versus tarO mutant, primary screen, teichoic acid synthesis inhibitors, RN4220, OD600 (AID 463173). The settings on record: S. aureus RN4220 wild type/DeltatarO growth, OD600, 18 h, active compounds read low, screened at 18.75 µg/mL (by protocol).
In the case of `CC(C)c1ccc(C(=O)Nc2ccc(-c3nc4ccccc4s3)c(Cl)c2)cc1`, the survival is inactive: 141%.
Regarding `COc1cccc(-n2c(-c3ccco3)nc3c(cnn3-c3ccccc3C)c2=O)c1`, the survival was inactive: 94%.
For the compound `COc1cccc(C(=O)NCC(c2ccc(N(C)C)cc2)N2CCc3ccccc32)c1OC` (configuration not stated), the survival is inactive: 74%.
Turning to `COc1ccc2oc(-c3ccc(C)c(NC(=O)c4sc5ccccc5c4Cl)c3)nc2c1`, the survival is inactive: 65%.
In the case of `Cn1cc(S(=O)(=O)N2CCCCCC2)cc1C(=O)Nc1ccccc1F` it was inactive: 78%; in that of `COc1ccc(-c2nc(Cn3c(SCc4cccc(F)c4)nc4cccnc43)c(C)o2)cc1`, inactive: 71%.
For the compound `Cc1cccc(OCC(=O)Nc2c(C(=O)N3CCN(c4ccccc4)CC3)oc3ccccc23)c1`, the survival is inactive: 86%.
As for `COc1ccc(N2CCN(c3oc(-c4ccccc4C)nc3S(=O)(=O)c3ccccc3)CC2)cc1`, the survival is inactive: 116%.
In the case of `COc1cc(NC(=O)Cn2nc(Cc3cccnc3)c3ccccc3c2=O)cc(OC)c1OC` it was inactive: 67%; in that of `CCc1nc2ccccc2n1CCCCOc1ccc(Cl)cc1`, active: 2%.
Under `CCCCN(CCCC)S(=O)(=O)c1ccc(C(=O)Nc2sc3c(c2C(N)=O)CCN(CC)C3)cc1` stands inactive: 68%.
Regarding `CCOc1ccccc1CNC(=O)CCCn1nc(C)c2sc3ccccc3c2c1=O`, the survival is inactive: 88%.
`Cc1cccc(CSc2nc3ccncc3n2Cc2ccc(C(=O)O)cc2)c1`: the survival was inactive: 82%.
Regarding `O=C(Nc1ccc(-c2cn3cccnc3n2)cc1)c1ccccc1F`, the survival was inactive: 87%.
As for `Cc1ccc(OCc2ccc(-c3nc(C#N)c(N4CCN(c5cccc(Cl)c5)CC4)o3)o2)cc1`, the survival is inactive: 94%.
With `O=C(CSc1nnnn1Cc1ccccc1)Nc1ccccc1`, the survival was inactive: 114%.
As for `COc1cc(NC(=O)Cn2nc(C(F)(F)F)c3c2CCCC3)cc(OC)c1OC`, the survival was inactive: 93%.
With `COc1ccccc1NC(=O)Cn1c(=O)n(CCc2ccccc2)c(=O)c2sc3ccccc3c21`, the survival was inactive: 76%.
Take `CCC1CN(C(=O)N2CCC(C(=O)NCCCc3ccccc3)CC2)c2ccccc2O1` (configuration not stated): the survival was inactive: 101%.
Under `COc1ccc(NC(=O)c2cc3ccc(O)cc3o/c2=N\O)cc1` stands inactive: 107%.
Under `Cc1ccc(S(=O)(=O)N(CC(=O)O)CC(=O)O)cc1` stands inactive: 105%.
Turning to `Cc1cc(C)cc(NS(=O)(=O)N(C)C)c1`, the survival was inactive: 113%.
Turning to `CCN1CCN(c2cc(C)c3cc(NC(=O)c4cc(Br)ccc4Cl)ccc3n2)CC1`, the survival is inactive: 57%.
`CCCC12CN3CC(C)(CN(C1)C3c1cn(CC)c3ccccc13)C2=O` (configuration not stated): the survival was inactive: 83%.
With `O=C(NCc1ccccc1Cl)c1ccc2nc(Cc3ccccc3)oc2c1`, the survival was inactive: 47%.
On to `CCC(=O)N1c2ccccc2CC1C(=O)NCCN1CCN(c2cccc(Cl)c2)CC1` (configuration not stated), for which the survival is inactive: 85%.
In the case of `CC(=O)N1CCCc2cc(S(=O)(=O)N3CCC(C(=O)NCc4ccccc4Cl)CC3)ccc21` it was inactive: 121%; in that of `COCCCNC(=O)CSc1nc(-c2ccc(OC)cc2)[nH]c1-c1ccc(OC)cc1`, inactive: 87%.
In the case of `CN(CC(=O)Nc1ccc2c(c1)OCO2)Cc1ccccc1` it was inactive: 110%; in that of `CC(C)n1nnnc1SCC(=O)OC1CCCCC1`, inactive: 127%.
On to `CCOC(=O)c1c(C)[nH]c(CCC(=O)Nc2ccccc2OCC)c1C`, for which the survival was inactive: 83%.
In the case of `COc1ccc2oc(=O)cc(CN3CCN(c4ccccc4OC)CC3)c2c1`, the survival was inactive: 84%.
Under `Cc1nn(CCC(=O)N2CCN(c3ccccc3F)CC2)c(C)c1S(=O)(=O)N1CCCC1` stands inactive: 120%; under `COc1ccc(C(=O)Nc2cc3cc(Cl)ccc3oc2=O)cc1OC`, inactive: 81%.
Take `COc1ccc(CNC(=O)c2ccc(CS(=O)(=O)c3ccc(OC)cc3)o2)cc1`: the survival was inactive: 87%.
In the case of `CCN(CC)C(=O)c1sc2c(c1C)c(=O)n(-c1ccc(OC)cc1OC)c(=O)n2Cc1cc(C)ccc1C` it was inactive: 79%; in that of `COc1cccc(-c2nn(C)c3sc(C(=O)NCc4ccc(C)cc4)cc23)c1`, inactive: 70%.
For the compound `O=C(O)C1=C(C(=O)Nc2ccc(F)c(Cl)c2)CCCC1`, the survival is inactive: 112%.
In the case of `N#Cc1c(C(F)(F)F)cc(-c2ccco2)nc1SCc1ccncc1` it was inactive: 106%; in that of `CN(C)C(=O)CSc1nnc2n1C(C)(C)Cc1ccccc1-2`, inactive: 107%; in that of `CC(=O)Nc1ccccc1OCc1cc(=O)n2c(C)csc2n1`, inactive: 88%.
For `CCOC(=O)c1cc(S(=O)(=O)NCc2ccc(F)cc2)[nH]n1`, the survival is inactive: 159%.
As for `O=S(=O)(c1ccccc1)N1CCCC(c2nc(-c3cccs3)no2)C1` (configuration not stated), the survival is inactive: 131%.
Take `Cc1ccc(-c2nc(C)c(CCNC(=O)C(=O)Nc3ccc(C)c(Cl)c3)s2)cc1`: the survival was inactive: 76%.
On to `Cc1cc(=O)n2nc(N3CCC(C(=O)NCc4ccccc4F)CC3)sc2n1`, for which the survival is inactive: 94%.
For `CN1CCN(CCNC(=O)c2cnn(-c3cccc(Cl)c3)c2C2CCN(C(=O)OC(C)(C)C)CC2)CC1`, the survival is inactive: 70%.
For `Cc1ccc(NC(=O)CSc2ncc3c(n2)-c2ccccc2N(C)S3(=O)=O)c(Cl)c1`, the survival is inactive: 45%.
On to `COc1ccc(CN(C)c2ccc(-c3nc(C)no3)cc2[N+](=O)[O-])cc1`, for which the survival is inactive: 74%.
As to `CCN(CCCNC(=O)CSc1cc(=O)n(C)c2cc(Cl)ccc12)c1ccccc1`, the survival is inactive: 75%.
Consider `CCC(CC)C(=O)Nc1cccc(-c2nc3ncccn3c2C)c1`, for which the survival was inactive: 98%.
`CCc1ccc(CNC(=O)Cn2nc(C)c3c(C)n(-c4ccc(C)cc4)nc3c2=O)cc1`: the survival was inactive: 71%.
Regarding `COc1ccc(CN2CCCN(CC(=O)Nc3ccc(Br)cc3F)S2(=O)=O)cc1`, the survival is inactive: 78%.
Turning to `Cc1ccc(NCc2cccn2-c2nnc(N3CCC(C(=O)NCc4ccccc4C)CC3)s2)cc1`, the survival was inactive: 98%.
As to `Cc1ccc(-n2ncc(C(=O)NCc3ccc4c(c3)OCO4)c2C2CCN(C(=O)OC(C)(C)C)CC2)cc1C`, the survival is inactive: 82%.
On to `Cc1c(C(=O)N2CCC(C)CC2)c(S(=O)(=O)Nc2cccc(C#N)c2)c(C)n1C`, for which the survival was inactive: 75%.
Turning to `Cc1c(Cl)cccc1NC(=O)c1cc(-c2cccs2)on1`, the survival is inactive: 105%.
As for `CCOC(=O)c1c(C)[nH]c(C)c1S(=O)(=O)N(C)CC(=O)Nc1cccc(Cl)c1C`, the survival was inactive: 69%.
